Reference: the supplement of paper PMC8728848
The other results are listed elsewhere or left out.

Legend:
Test in all cases: glycan array binding signal (z-score within array); higher = stronger binding
Details in all cases: glycan notation: IUPAC condensed, linker removed
[1] = target: Fuc(a1-3)[GalNAc(b1-4)]GlcNAc
How it was run: (§1)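 Glycan array binding is given as a within-array Z-score, which can be read as non-binding when negative. The arrays, 3228 of them, came from the Consortium for Functional Glycomics database and were retained only where the protein sequence was available. Z-scores were averaged across arrays of the same protein sequence at different concentrations or buffers and across linkers.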

[2] = target: Fuc(a1-3)[GalNAc(b1-4)]GlcNAc6S
How it was run: as §1

Fuc(a1-4)GlcNAc = target: Fuc(a1-4)GlcNAc
How it was run: as §1

Fuc(b1-3)GlcNAc = target: Fuc(b1-3)GlcNAc
How it was run: as §1

Gal(a1-2)Gal = target: Gal(a1-2)Gal
How it was run: as §1

Gal(a1-3)Gal = target: Gal(a1-3)Gal
How it was run: as §1

Gal(a1-3)Gal(b1-3)GlcNAc = target: Gal(a1-3)Gal(b1-3)GlcNAc
How it was run: as §1

[3] = target: Gal(a1-3)Gal(b1-3)GlcNAc(b1-2)Man
How it was run: as §1

[4] = target: Gal(a1-3)Gal(b1-3)GlcNAc(b1-2)Man(a1-3)[Gal(a1-3)Gal(b1-3)GlcNAc(b1-2)Man(a1-6)]Man(b1-4)GlcNAc(b1-4)GlcNAc
How it was run: as §1

[5] = target: Gal(a1-3)Gal(b1-3)GlcNAc(b1-3)GalNAc
How it was run: as §1

[6] = target: Gal(a1-3)Gal(b1-3)GlcNAc(b1-6)GalNAc
How it was run: as §1

[7] = target: Gal(a1-3)Gal(b1-3)[Fuc(a1-4)]GlcNAc(b1-2)Man(a1-3)[Gal(a1-3)Gal(b1-3)[Fuc(a1-4)]GlcNAc(b1-2)Man(a1-6)]Man(b1-4)GlcNAc(b1-4)GlcNAc
How it was run: as §1

Gal(a1-3)Gal(b1-4)Glc = target: Gal(a1-3)Gal(b1-4)Glc
How it was run: as §1

Gal(a1-3)Gal(b1-4)GlcNAc = target: Gal(a1-3)Gal(b1-4)GlcNAc
How it was run: as §1

[8] = target: Gal(a1-3)Gal(b1-4)GlcNAc(b1-2)Man
How it was run: as §1

[9] = target: Gal(a1-3)Gal(b1-4)GlcNAc(b1-2)Man(a1-3)[Gal(a1-3)Gal(b1-4)GlcNAc(b1-2)Man(a1-6)]Man(b1-4)GlcNAc(b1-4)GlcNAc
How it was run: as §1

[10] = target: Gal(a1-3)Gal(b1-4)GlcNAc(b1-3)GalNAc
How it was run: as §1

[11] = target: Gal(a1-3)Gal(b1-4)GlcNAc(b1-6)GalNAc
How it was run: as §1

[12] = target: Gal(a1-3)Gal(b1-4)[Fuc(a1-3)]GlcNAc
How it was run: as §1

[13] = target: Gal(a1-3)Gal(b1-4)[Fuc(a1-3)]GlcNAc(b1-2)Man(a1-3)[Gal(a1-3)Gal(b1-4)[Fuc(a1-3)]GlcNAc(b1-2)Man(a1-6)]Man(b1-4)GlcNAc(b1-4)GlcNAc
How it was run: as §1

Gal(a1-3)GalNAc = target: Gal(a1-3)GalNAc
How it was run: as §1

[14] = target: Gal(a1-3)[Gal(a1-4)]Gal(b1-4)GlcNAc
How it was run: as §1

[15] = target: Gal(a1-4)Gal(b1-3)GlcNAc(b1-2)Man(a1-3)[Gal(a1-4)Gal(b1-3)GlcNAc(b1-2)Man(a1-6)]Man(b1-4)GlcNAc(b1-4)GlcNAc
How it was run: as §1

Gal(a1-4)Gal(b1-4)Glc = target: Gal(a1-4)Gal(b1-4)Glc
How it was run: as §1

Gal(a1-4)Gal(b1-4)GlcNAc = target: Gal(a1-4)Gal(b1-4)GlcNAc
How it was run: as §1

[16] = target: Gal(a1-4)Gal(b1-4)GlcNAc(b1-2)Man(a1-3)[Gal(a1-4)Gal(b1-4)GlcNAc(b1-2)Man(a1-6)]Man(b1-4)GlcNAc(b1-4)GlcNAc
How it was run: as §1

[17] = target: Gal(a1-4)Gal(b1-4)GlcNAc(b1-3)Gal(b1-4)Glc
How it was run: as §1

Gal(a1-4)GlcNAc = target: Gal(a1-4)GlcNAc
How it was run: as §1

Gal(a1-6)Glc = target: Gal(a1-6)Glc
How it was run: as §1

Gal(b1-2)Gal = target: Gal(b1-2)Gal
How it was run: as §1

Gal(b1-3)Gal = target: Gal(b1-3)Gal
How it was run: as §1

Gal(b1-3)Gal(b1-4)GlcNAc = target: Gal(b1-3)Gal(b1-4)GlcNAc
How it was run: as §1

Gal(b1-3)GalNAc = target: Gal(b1-3)GalNAc
How it was run: as §1

[18] = target: Gal(b1-3)GalNAc(a1-3)[Fuc(a1-2)]Gal(b1-4)Glc
How it was run: as §1

[19] = target: Gal(b1-3)GalNAc(a1-3)[Fuc(a1-2)]Gal(b1-4)GlcNAc
How it was run: as §1

Gal(b1-3)GalNAc(b1-3)Gal = target: Gal(b1-3)GalNAc(b1-3)Gal
How it was run: as §1

[20] = target: Gal(b1-3)GalNAc(b1-3)Gal(a1-4)Gal(b1-4)Glc
How it was run: as §1

B1: ACA (Amaranthus caudatus) (protein)
chain: MAGLPVIMCLKSNNNQKYLRYQSDNIQQYGLLQFSADKILDPLAQFEVEPSKTYDGLVHIKSRYTNKYLVRWSPNHYWITASANEPDENKSNWACTLFKPLYVEEGNMKKVRLLHVQLGHYTQNYTVGGSFVSYLFAESSQIDTGSKDVFHVIDWKSIFQFPKRYVTFKGNNGKYLGVITINQLPCLQFGYDNLNDPKVAHEMFVTSNGTICIKSTYMNKFWRLSTDDWILVDGNDPRETNEAAALFRSDVHDFNVISLLNMQKTWFIKRFTSGKPGFINCMNAATQNVDETAILEIIELGSNN
- glycan array binding signal (z-score) [1]: -0.069
- glycan array binding signal (z-score) [2]: -0.294
- glycan array binding signal (z-score) (Fuc(a1-4)GlcNAc): -0.663
- glycan array binding signal (z-score) (Fuc(b1-3)GlcNAc): 0.061
- glycan array binding signal (z-score) (Gal(a1-2)Gal): 0.024
- glycan array binding signal (z-score) (Gal(a1-3)Gal): -0.223
- glycan array binding signal (z-score) (Gal(a1-3)Gal(b1-3)GlcNAc): 0.058
- glycan array binding signal (z-score) [3]: -0.587
- glycan array binding signal (z-score) [4]: 0.725
- glycan array binding signal (z-score) [5]: -0.395
- glycan array binding signal (z-score) [6]: 0.287
- glycan array binding signal (z-score) [7]: 0.809
- glycan array binding signal (z-score) (Gal(a1-3)Gal(b1-4)Glc): -0.384
- glycan array binding signal (z-score) (Gal(a1-3)Gal(b1-4)GlcNAc): -0.357
- glycan array binding signal (z-score) [8]: 0.029
- glycan array binding signal (z-score) [9]: -0.158
- glycan array binding signal (z-score) [10]: 0.005
- glycan array binding signal (z-score) [11]: -0.246
- glycan array binding signal (z-score) [12]: 0.091
- glycan array binding signal (z-score) [13]: -0.878
- glycan array binding signal (z-score) (Gal(a1-3)GalNAc): 0.156
- glycan array binding signal (z-score) [14]: 0.1
- glycan array binding signal (z-score) [15]: -0.318
- glycan array binding signal (z-score) (Gal(a1-4)Gal(b1-4)Glc): -0.012
- glycan array binding signal (z-score) (Gal(a1-4)Gal(b1-4)GlcNAc): 0.134
- glycan array binding signal (z-score) [16]: -0.195
- glycan array binding signal (z-score) [17]: -0.059
- glycan array binding signal (z-score) (Gal(a1-4)GlcNAc): -0.189
- glycan array binding signal (z-score) (Gal(a1-6)Glc): 0.141
- glycan array binding signal (z-score) (Gal(b1-2)Gal): -0.153
- glycan array binding signal (z-score) (Gal(b1-3)Gal): 0.088
- glycan array binding signal (z-score) (Gal(b1-3)Gal(b1-4)GlcNAc): 0.13
- glycan array binding signal (z-score) (Gal(b1-3)GalNAc): -0.321
- glycan array binding signal (z-score) [18]: -0.399
- glycan array binding signal (z-score) [19]: -0.18
- glycan array binding signal (z-score) (Gal(b1-3)GalNAc(b1-3)Gal): -0.191
- glycan array binding signal (z-score) [20]: -0.347
